{"source": "patent US20240209098A1", "binders": {"B1": {"name": "CID 213182, fusion protein n[VEGF-BP, Col2-BP1 as dimer]c (Fc fusion)", "chain": "SDTGRPFVEMYSEIPEIIHMTEGRELVIPCRVTSPNITVTLKKFPLDTLIPDGKRIIWDSRKGFIISNATYKEIGLLTCEATVNGHLYKTNYLTHRQTNTIIDVVLSPSHGIELSVGEKLVLNCTARTELNVGIDFNWEYPSSKHQHKKLVNRDLKTQSGSEMKKFLSTLTIDGVTRSDQGLYTCAASSGLMTKKNSTFVRVHEK[skipping human IgG1 Fc]GGGSGGGGSGGGGSIAAKFDEAQSAADSEILHLPNLTEQQRHYFRRWLSDDPSVSTHILTQAQHLNDDQAPKIAAKFDEAQSAADSEILHLPNLTEQQRHYFRRWLSDDPSVSTHILTQAQHLNDDQAPK"}, "B2": {"name": "CID 217793, fusion protein n[Col2-BP1_as dimer - VEGF-BP]c (Fc fusion)", "chain": "IAAKFDEAQSAADSEILHLPNLTEQQRHYFRRWLSDDPSVSTHILTQAQHLNDDQAPKIAAKFDEAQSAADSEILHLPNLTEQQRHYFRRWLSDDPSVSTHILTQAQHLNDDQAPKGGGGSGGGGSGGGGSSDTGRPFVEMYSEIPEIIHMTEGRELVIPCRVTSPNITVTLKKFPLDTLIPDGKRIIWDSRKGFIISNATYKEIGLLTCEATVNGHLYKTNYLTHRQTNTIIDVVLSPSHGIELSVGEKLVLNCTARTELNVGIDFNWEYPSSKHQHKKLVNRDLKTQSGSEMKKFLSTLTIDGVTRSDQGLYTCAASSGLMTKKNSTFVRVHEK[skipping human IgG1 Fc]"}, "B3": {"name": "CID 213184, fusion protein n[VEGF-BP, Col2-BP1 as tetramer]c (Fc fusion)", "chain": "SDTGRPFVEMYSEIPEIIHMTEGRELVIPCRVTSPNITVTLKKFPLDTLIPDGKRIIWDSRKGFIISNATYKEIGLLTCEATVNGHLYKTNYLTHRQTNTIIDVVLSPSHGIELSVGEKLVLNCTARTELNVGIDFNWEYPSSKHQHKKLVNRDLKTQSGSEMKKFLSTLTIDGVTRSDQGLYTCAASSGLMTKKNSTFVRVHEK[skipping human IgG1 Fc]GGGSGGGGSGGGGSIAAKFDEAQSAADSEILHLPNLTEQQRHYFRRWLSDDPSVSTHILTQAQHLNDDQAPKIAAKFDEAQSAADSEILHLPNLTEQQRHYFRRWLSDDPSVSTHILTQAQHLNDDQAPKIAAKFDEAQSAADSEILHLPNLTEQQRHYFRRWLSDDPSVSTHILTQAQHLNDDQAPKIAAKFDEAQSAADSEILHLPNLTEQQRHYFRRWLSDDPSVSTHILTQAQHLNDDQAPK"}}, "key": {"[1]": {"target": "human Type II collagen (human) (UniProt P02458)", "experiment": "SPR (Biacore 3000), target immobilised on CM5 chip, fusion protein as analyte, Langmuir 1:1"}, "[2]": {"target": "human Type II collagen (human) (UniProt P02458)", "experiment": "ELISA, human Type II collagen coated on the plate, fusion protein titrated, detection with anti-human-IgG antibody"}}, "data": [{"binder": "B1", "values": [{"measurement": "Kd", "setting": "[1]", "result": 1.38, "unit": "nM"}, {"measurement": "Kd", "setting": "[2]", "result": 0.1, "unit": "nM"}]}, {"binder": "B2", "values": [{"measurement": "Kd", "setting": "[1]", "result": 35, "unit": "nM"}]}, {"binder": "B3", "values": [{"measurement": "Kd", "setting": "[1]", "result": 0.15, "unit": "nM"}]}]}
